According to publication PMC4007762:
Results are given in words; binding and its absence hold for the method and conditions named. Binding seen in cells or lysates may run through a third protein. Some entries that bind do so weakly or less than the wild type. For some assays here: Tags and fused reporters may be left off the sequences shown.

The chains behind the UniProt entries cited, without tags or fusion partners.
UniProt Q14247: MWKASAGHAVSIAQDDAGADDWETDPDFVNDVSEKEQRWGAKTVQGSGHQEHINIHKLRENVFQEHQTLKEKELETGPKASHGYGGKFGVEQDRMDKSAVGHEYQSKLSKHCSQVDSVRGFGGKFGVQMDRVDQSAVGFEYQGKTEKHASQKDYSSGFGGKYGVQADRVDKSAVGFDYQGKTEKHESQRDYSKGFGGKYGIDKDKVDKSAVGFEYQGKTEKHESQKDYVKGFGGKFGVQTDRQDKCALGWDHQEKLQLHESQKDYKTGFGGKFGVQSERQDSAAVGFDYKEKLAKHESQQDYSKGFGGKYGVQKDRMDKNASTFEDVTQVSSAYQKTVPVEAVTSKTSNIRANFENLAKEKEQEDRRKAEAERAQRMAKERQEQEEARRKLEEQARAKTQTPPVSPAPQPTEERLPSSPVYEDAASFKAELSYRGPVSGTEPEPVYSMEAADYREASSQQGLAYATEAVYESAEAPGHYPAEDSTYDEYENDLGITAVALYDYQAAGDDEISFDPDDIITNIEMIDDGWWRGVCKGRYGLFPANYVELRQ

T1: YFP–p120-1A Y335F (UniProt P30999)
T1 sequence: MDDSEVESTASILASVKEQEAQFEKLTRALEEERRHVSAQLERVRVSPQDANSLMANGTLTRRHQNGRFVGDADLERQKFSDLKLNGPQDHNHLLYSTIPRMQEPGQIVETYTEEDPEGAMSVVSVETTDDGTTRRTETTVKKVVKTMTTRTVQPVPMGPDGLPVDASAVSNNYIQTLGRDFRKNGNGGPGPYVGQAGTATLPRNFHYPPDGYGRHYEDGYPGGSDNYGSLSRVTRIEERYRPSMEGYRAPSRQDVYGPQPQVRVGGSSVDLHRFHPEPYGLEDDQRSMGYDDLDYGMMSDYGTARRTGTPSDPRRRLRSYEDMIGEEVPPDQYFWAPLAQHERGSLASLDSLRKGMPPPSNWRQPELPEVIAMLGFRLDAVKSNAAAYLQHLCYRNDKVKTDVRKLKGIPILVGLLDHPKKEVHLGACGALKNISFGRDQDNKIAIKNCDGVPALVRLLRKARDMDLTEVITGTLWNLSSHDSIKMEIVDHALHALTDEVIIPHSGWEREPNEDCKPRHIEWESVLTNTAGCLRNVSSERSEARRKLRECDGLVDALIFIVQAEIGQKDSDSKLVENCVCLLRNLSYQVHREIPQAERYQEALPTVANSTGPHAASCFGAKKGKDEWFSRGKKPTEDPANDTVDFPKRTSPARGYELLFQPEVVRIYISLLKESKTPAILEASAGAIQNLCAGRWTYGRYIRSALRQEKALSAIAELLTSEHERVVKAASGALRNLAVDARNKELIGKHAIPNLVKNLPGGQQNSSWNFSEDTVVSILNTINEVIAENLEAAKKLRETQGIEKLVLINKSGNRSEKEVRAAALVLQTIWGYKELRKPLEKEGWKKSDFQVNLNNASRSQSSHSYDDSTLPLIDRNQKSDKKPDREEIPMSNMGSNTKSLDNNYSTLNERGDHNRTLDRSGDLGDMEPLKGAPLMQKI

T2: p120 catenin, endogenous (human cell lines) (human (endogenous in KM12C, HEK 293T, HCT116)) (UniProt O60716)
T2 sequence: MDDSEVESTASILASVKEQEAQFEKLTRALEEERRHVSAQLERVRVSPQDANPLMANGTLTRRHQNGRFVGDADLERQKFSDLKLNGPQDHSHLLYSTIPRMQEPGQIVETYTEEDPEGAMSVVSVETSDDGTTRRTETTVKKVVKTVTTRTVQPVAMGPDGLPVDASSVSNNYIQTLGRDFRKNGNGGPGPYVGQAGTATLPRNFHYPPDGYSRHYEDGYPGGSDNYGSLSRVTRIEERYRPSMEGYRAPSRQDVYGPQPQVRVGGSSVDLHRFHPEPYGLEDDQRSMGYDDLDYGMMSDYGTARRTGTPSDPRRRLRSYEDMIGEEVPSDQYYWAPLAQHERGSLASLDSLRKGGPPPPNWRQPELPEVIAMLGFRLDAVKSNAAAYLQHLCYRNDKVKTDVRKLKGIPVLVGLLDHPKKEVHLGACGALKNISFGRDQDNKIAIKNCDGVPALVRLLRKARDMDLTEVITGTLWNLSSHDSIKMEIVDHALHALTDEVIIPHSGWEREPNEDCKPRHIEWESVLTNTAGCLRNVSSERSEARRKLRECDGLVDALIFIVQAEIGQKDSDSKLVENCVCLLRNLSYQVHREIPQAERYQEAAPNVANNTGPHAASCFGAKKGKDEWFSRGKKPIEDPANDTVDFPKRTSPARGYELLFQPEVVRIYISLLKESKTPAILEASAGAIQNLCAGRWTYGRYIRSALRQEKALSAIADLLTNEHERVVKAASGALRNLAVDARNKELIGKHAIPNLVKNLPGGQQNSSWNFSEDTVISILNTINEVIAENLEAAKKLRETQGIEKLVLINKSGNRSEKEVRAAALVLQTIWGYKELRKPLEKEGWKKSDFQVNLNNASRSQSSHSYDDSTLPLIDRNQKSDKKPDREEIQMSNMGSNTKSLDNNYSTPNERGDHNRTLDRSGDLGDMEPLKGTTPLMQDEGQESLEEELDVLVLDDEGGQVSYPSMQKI

T3: GST–PTP-PEST-C231S fusion protein (catalytically inactive trapping mutant) (UniProt Q05209)
T3 sequence: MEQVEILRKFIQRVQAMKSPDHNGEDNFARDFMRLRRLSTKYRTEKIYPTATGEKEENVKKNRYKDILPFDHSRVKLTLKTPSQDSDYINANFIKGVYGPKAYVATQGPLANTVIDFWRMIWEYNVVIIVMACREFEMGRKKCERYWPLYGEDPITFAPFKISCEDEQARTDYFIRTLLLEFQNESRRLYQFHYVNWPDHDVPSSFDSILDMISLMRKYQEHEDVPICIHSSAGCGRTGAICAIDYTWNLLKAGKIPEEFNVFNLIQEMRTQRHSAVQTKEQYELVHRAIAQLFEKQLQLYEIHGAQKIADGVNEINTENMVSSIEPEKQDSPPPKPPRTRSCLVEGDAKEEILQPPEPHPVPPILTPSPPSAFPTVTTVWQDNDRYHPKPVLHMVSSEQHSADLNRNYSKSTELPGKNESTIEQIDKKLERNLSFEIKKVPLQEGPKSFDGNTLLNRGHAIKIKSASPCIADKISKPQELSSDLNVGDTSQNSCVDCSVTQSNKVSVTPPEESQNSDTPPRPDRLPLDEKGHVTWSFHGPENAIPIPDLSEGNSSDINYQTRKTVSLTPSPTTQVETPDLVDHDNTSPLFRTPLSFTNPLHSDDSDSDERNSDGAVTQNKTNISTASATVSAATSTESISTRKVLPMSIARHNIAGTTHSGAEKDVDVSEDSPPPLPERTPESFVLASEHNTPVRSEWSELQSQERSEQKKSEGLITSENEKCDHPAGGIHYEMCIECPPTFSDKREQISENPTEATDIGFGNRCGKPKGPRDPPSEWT


Legend:
[1] = biological target: T1, YFP–p120-1A Y335F; assay: co-IP; YFP-tagged p120 constructs transiently expressed in HCT116-KD cells, immunoprecipitated with JL-8 in modified RIPA buffer; blots for VAV2, cortactin, E-cadherin
[2] = biological target: T2, p120 catenin, endogenous (human cell lines) (human (endogenous in KM12C, HEK 293T, HCT116)); assay: co-IP; endogenous p120 immunoprecipitated with monoclonal p120 antibody from HCT116-NT and HCT116-KD cells in modified RIPA buffer; blots for VAV2, cortactin, p190 RhoGAP
[3] = biological target: T3, GST–PTP-PEST-C231S fusion protein (catalytically inactive trapping mutant); assay: pull-down; substrate trapping with HEK 293T cells, endogenous proteins; data not shown; only the target purified
[4] = biological target: T3, GST–PTP-PEST-C231S fusion protein (catalytically inactive trapping mutant); assay: pull-down; substrate trapping: 10 µg GST fusion protein with 1 mg lysate of pervanadate-treated (50 µM, 20 minutes) KM12C cells, modified RIPA buffer, 4°C, 1 hour; endogenous proteins detected by western blot; only the target purified

Row | binding [1] | binding [2] | binding [3] | binding [4] | Molecule
1 | binds | binds |  |  | cortactin, endogenous (HCT116 cells) (from UniProt Q14247 1-550)
2 |  | binds |  |  | VAV2, endogenous (HCT116 cells) (protein, UniProt P52735 1-878) MEQWRQCGRWLIDCKVLPPNHRVVWPSAVVFDLAQALRDGVLLCQLLHNLSPGSIDLKDINFRPQMSQFLCLKNIRTFLKVCHDKFGLRNSELFDPFDLFDVRDFGKVISAVSRLSLHSIAQNKGIRPFPSEETTENDDDVYRSLEELADEHDLGEDIYDCVPCEDGGDDIYEDIIKVEVQQPMIRYMQKMGMTEDDKRNCCLLEIQETEAKYYRTLEDIEKNYMSPLRLVLSPADMAAVFINLEDLIKVHHSFLRAIDVSVMVGGSTLAKVFLDFKERLLIYGEYCSHMEHAQNTLNQLLASREDFRQKVEECTLKVQDGKFKLQDLLVVPMQRVLKYHLLLKELLSHSAERPERQQLKEALEAMQDLAMYINEVKRDKETLRKISEFQSSIENLQVKLEEFGRPKIDGELKVRSIVNHTKQDRYLFLFDKVVIVCKRKGYSYELKEIIELLFHKMTDDPMNNKDVKKSHGKMWSYGFYLIHLQGKQGFQFFCKTEDMKRKWMEQFEMAMSNIKPDKANANHHSFQMYTFDKTTNCKACKMFLRGTFYQGYMCTKCGVGAHKECLEVIPPCKFTSPADLDASGAGPGPKMVAMQNYHGNPAPPGKPVLTFQTGDVLELLRGDPESPWWEGRLVQTRKSGYFPSSSVKPCPVDGRPPISRPPSREIDYTAYPWFAGNMERQQTDNLLKSHASGTYLIRERPAEAERFAISIKFNDEVKHIKVVEKDNWIHITEAKKFDSLLELVEYYQCHSLKESFKQLDTTLKYPYKSRERSASRASSRSPASCASYNFSFLSPQGLSFASQGPSAPFWSVFTPRVIGTAVARYNFAARDMRELSLREGDVVRIYSRIGGDQGWWKGETNGRIGWFPSTYVEEEGIQ
3 |  |  | binds | binds | p120 catenin, endogenous (human cell lines) (protein, UniProt O60716 1-968) MDDSEVESTASILASVKEQEAQFEKLTRALEEERRHVSAQLERVRVSPQDANPLMANGTLTRRHQNGRFVGDADLERQKFSDLKLNGPQDHSHLLYSTIPRMQEPGQIVETYTEEDPEGAMSVVSVETSDDGTTRRTETTVKKVVKTVTTRTVQPVAMGPDGLPVDASSVSNNYIQTLGRDFRKNGNGGPGPYVGQAGTATLPRNFHYPPDGYSRHYEDGYPGGSDNYGSLSRVTRIEERYRPSMEGYRAPSRQDVYGPQPQVRVGGSSVDLHRFHPEPYGLEDDQRSMGYDDLDYGMMSDYGTARRTGTPSDPRRRLRSYEDMIGEEVPSDQYYWAPLAQHERGSLASLDSLRKGGPPPPNWRQPELPEVIAMLGFRLDAVKSNAAAYLQHLCYRNDKVKTDVRKLKGIPVLVGLLDHPKKEVHLGACGALKNISFGRDQDNKIAIKNCDGVPALVRLLRKARDMDLTEVITGTLWNLSSHDSIKMEIVDHALHALTDEVIIPHSGWEREPNEDCKPRHIEWESVLTNTAGCLRNVSSERSEARRKLRECDGLVDALIFIVQAEIGQKDSDSKLVENCVCLLRNLSYQVHREIPQAERYQEAAPNVANNTGPHAASCFGAKKGKDEWFSRGKKPIEDPANDTVDFPKRTSPARGYELLFQPEVVRIYISLLKESKTPAILEASAGAIQNLCAGRWTYGRYIRSALRQEKALSAIADLLTNEHERVVKAASGALRNLAVDARNKELIGKHAIPNLVKNLPGGQQNSSWNFSEDTVISILNTINEVIAENLEAAKKLRETQGIEKLVLINKSGNRSEKEVRAAALVLQTIWGYKELRKPLEKEGWKKSDFQVNLNNASRSQSSHSYDDSTLPLIDRNQKSDKKPDREEIQMSNMGSNTKSLDNNYSTPNERGDHNRTLDRSGDLGDMEPLKGTTPLMQDEGQESLEEELDVLVLDDEGGQVSYPSMQKI
